Numbering of substitutions follows the chain as printed. In names and notes the source's numbering stands. These are yes or no findings as the source states them, for the method shown. Binding seen in cells or lysates may run through a third protein. Some entries that bind do so weakly or less than the wild type. For some of these results: Sequences can lack the tags named with a protein.
T1: Halo-tagged iASPP CTD (625–828) (UniProt Q8WUF5)
T1 sequence: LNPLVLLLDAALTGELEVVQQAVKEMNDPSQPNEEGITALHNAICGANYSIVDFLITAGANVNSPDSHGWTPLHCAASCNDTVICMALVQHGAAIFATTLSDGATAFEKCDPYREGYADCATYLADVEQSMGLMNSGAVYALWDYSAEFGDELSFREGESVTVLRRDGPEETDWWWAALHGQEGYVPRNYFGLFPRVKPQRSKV

The chains behind the UniProt entries cited, without tags or fusion partners.
UniProt P05412: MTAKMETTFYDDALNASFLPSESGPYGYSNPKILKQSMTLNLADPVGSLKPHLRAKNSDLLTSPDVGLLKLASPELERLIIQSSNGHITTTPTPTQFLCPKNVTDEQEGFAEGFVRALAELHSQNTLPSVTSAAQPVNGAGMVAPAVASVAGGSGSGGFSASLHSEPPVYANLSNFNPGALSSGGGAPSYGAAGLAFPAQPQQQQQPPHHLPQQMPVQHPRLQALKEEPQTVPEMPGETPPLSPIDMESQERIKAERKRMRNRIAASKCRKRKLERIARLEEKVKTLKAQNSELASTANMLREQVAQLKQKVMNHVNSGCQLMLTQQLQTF
UniProt P01100: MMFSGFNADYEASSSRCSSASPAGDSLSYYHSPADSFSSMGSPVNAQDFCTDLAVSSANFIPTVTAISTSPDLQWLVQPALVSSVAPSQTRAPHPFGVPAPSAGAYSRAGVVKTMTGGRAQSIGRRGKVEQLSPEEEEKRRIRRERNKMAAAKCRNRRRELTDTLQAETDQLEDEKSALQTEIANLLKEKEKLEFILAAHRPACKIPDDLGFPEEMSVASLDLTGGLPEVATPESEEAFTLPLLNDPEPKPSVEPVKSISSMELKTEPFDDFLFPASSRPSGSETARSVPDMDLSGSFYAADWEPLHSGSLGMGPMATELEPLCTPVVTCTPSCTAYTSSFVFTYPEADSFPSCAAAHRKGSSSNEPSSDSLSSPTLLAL

T2: Halo-tagged ASPP2 CTD (925–1128) (UniProt Q13625)
T2 sequence: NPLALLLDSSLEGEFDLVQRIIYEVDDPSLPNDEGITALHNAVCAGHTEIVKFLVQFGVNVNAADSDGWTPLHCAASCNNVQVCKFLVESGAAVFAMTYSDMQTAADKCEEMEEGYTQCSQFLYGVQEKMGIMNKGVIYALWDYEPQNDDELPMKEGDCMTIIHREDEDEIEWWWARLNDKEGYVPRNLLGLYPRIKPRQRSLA

T3: Halo-tagged ASPP1 CTD (887–1090) (UniProt Q96KQ4)
T3 sequence: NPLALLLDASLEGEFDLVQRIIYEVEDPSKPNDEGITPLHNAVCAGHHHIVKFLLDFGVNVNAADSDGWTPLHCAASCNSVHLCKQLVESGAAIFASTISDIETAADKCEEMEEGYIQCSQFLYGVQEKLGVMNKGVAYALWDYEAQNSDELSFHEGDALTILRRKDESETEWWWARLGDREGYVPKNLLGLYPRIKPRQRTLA

T4: iASPP (endogenous, immunoprecipitated with LX49.3 or LX128.5) (human (endogenous in HaCaT)) (UniProt Q8WUF5)
T4 sequence: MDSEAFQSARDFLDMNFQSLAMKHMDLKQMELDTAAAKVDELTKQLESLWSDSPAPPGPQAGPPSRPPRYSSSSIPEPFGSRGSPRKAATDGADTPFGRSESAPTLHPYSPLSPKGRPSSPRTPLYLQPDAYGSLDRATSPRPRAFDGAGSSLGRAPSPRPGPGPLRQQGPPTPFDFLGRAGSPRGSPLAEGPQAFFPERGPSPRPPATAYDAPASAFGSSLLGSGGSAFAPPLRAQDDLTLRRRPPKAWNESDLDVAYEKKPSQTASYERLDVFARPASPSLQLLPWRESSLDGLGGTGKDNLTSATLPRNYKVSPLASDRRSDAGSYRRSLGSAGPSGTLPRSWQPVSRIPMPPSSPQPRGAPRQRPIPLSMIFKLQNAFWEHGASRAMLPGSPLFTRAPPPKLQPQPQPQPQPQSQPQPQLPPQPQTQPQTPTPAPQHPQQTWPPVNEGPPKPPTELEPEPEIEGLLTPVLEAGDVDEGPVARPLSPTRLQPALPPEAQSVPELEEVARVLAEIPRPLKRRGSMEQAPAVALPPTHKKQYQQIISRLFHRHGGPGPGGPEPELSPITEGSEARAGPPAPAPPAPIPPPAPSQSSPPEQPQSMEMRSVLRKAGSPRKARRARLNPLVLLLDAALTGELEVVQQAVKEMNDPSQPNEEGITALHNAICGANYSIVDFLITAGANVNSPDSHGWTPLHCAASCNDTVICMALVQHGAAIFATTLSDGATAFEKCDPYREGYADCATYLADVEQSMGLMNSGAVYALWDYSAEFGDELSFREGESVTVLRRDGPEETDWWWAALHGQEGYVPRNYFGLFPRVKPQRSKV

B1: JunB (endogenous) (protein, UniProt P17275 1-347)
chain: MCTKMEQPFYHDDSYTATGYGRAPGGLSLHDYKLLKPSLAVNLADPYRSLKAPGARGPGPEGGGGGSYFSGQGSDTGASLKLASSELERLIVPNSNGVITTTPTPPGQYFYPRGGGSGGGAGGAGGGVTEEQEGFADGFVKALDDLHKMNHVTPPNVSLGATGGPPAGPGGVYAGPEPPPVYTNLSSYSPASASSGGAGAAVGTGSSYPTTTISYLPHAPPFAGGHPAQLGLGRGASTFKEEPQTVPEARSRDATPPVSPINMEDQERIKVERKRLRNRLAATKCRKRKLERIARLEDKVKTLKAENAGLSSTAGLLREQVAQLKQKVMTHVSNGCQLLLGVKGHAF
B2: JunD (endogenous) (protein, UniProt P17535 1-347)
chain: METPFYGDEALSGLGGGASGSGGSFASPGRLFPGAPPTAAAGSMMKKDALTLSLSEQVAAALKPAAAPPPTPLRADGAPSAAPPDGLLASPDLGLLKLASPELERLIIQSNGLVTTTPTSSQFLYPKVAASEEQEFAEGFVKALEDLHKQNQLGAGAAAAAAAAAAGGPSGTATGSAPPGELAPAAAAPEAPVYANLSSYAGGAGGAGGAATVAFAAEPVPFPPPPPPGALGPPRLAALKDEPQTVPDVPSFGESPPLSPIDMDTQERIKAERKRLRNRIAASKCRKRKLERISRLEEKVKTLKSQNTELASTASLLREQVAQLKQKVLSHVNSGCQLLPQHQVPAY
B3: Myc-tagged JunD (protein, UniProt P17535 1-347)
chain: B2 chain
B4: Myc-tagged JunD T71V (protein, UniProt P17535 1-347)
chain: B2 chain with T71V
B5: Myc-tagged ΔNp63α (protein, UniProt Q9H3D4-2 1-586)
chain: MLYLENNAQTQFSEPQYTNLGLLNSMDQQIQNGSSSTSPYNTDHAQNSVTAPSPYAQPSSTFDALSPSPAIPSNTDYPGPHSFDVSFQQSSTAKSATWTYSTELKKLYCQIAKTCPIQIKVMTPPPQGAVIRAMPVYKKAEHVTEVVKRCPNHELSREFNEGQIAPPSHLIRVEGNSHAQYVEDPITGRQSVLVPYEPPQVGTEFTTVLYNFMCNSSCVGGMNRRPILIIVTLETRDGQVLGRRCFEARICACPGRDRKADEDSIRKQQVSDSTKNGDGTKRPFRQNTHGIQMTSIKKRRSPDDELLYLPVRGRETYEMLLKIKESLELMQYLPQHTIETYRQQQQQQHQHLLQKQTSIQSPSSYGNSSPPLNKMNSMNKLPSVSQLINPQQRNALTPTTIPDGMGANIPMMGTHMPMAGDMNGLSPTQALPPPLSMPSTSHCTPPPPYPTDCSIVSFLARLGCSSCLDYFTTQGLTTIYQIEHYSMDDLASLKIPEQFRHAIWKGILDHRQLHEFSSPSHLLRTPSSASTVSVGSSETRGERVIDAVRFTLRQTISFPPRDEWNDFNFDMDARRNKQQRIKEEGE
B6: Myc-tagged JunB (protein, UniProt P17275 1-347)
chain: B1 chain
B7: Myc-tagged JunD ΔPxxP (protein, UniProt P17535)
chain: METPFYGDEALSGLGGGASGSGGSFASPGRLFPGAPPTAAAGSMMKKDALTLSLSEQVAAALKPAAAPADGAPSAAPPDGLLASPDLGLLKLASPELERLIIQSNGLVTTTPTSSQFLYPKVAASEEQEFAEGFVKALEDLHKQNQLGAGAAAAAAAAAAGGPSGTATGSAPPGELAPAAAAPEAPVYANLSSYAGGAGGAGGAATVAFAAEPVPFPPPPPPGALGPPRLAALKDEPQTVPDVPSFGESPPLSPIDMDTQERIKAERKRLRNRIAASKCRKRKLERISRLEEKVKTLKSQNTELASTASLLREQVAQLKQKVLSHVNSGCQLLPQHQVPAY
B8: Myc-tagged JunD mutPxxP (protein, UniProt P17535 1-347)
chain: B2 chain with P69A, P72A, R74A
B9: Myc-tagged JunD T71D (protein, UniProt P17535 1-347)
chain: B2 chain with T71D

Experiments:
[1] = molecular target: T1, Halo-tagged iASPP CTD (625–828); experiment: pull-down; displacement pull-down: Halo-iASPP CTD on magnetic Halo beads, in vitro translated Myc-tagged protein, with or without 25 μM JunD or PP1 peptide; anti-Myc blot; only the target purified
[2] = molecular target: T2, Halo-tagged ASPP2 CTD (925–1128); experiment: pull-down; 100 μg purified Halo fusion protein immobilised on magnetic Halo beads; 20 μL in vitro translated Myc-tagged protein, 3 h at 4°C; 50 mM HEPES pH 7.5, 200 mM NaCl, 0.5 mM TCEP, 0.1% Surfactant P-20; anti-Myc blot; only the target purified
[3] = molecular target: T1, Halo-tagged iASPP CTD (625–828); experiment: as above
[4] = molecular target: T3, Halo-tagged ASPP1 CTD (887–1090); experiment: as above
[5] = molecular target: T4, iASPP (endogenous, immunoprecipitated with LX49.3 or LX128.5) (human (endogenous in HaCaT)); experiment: co-IP; IP of endogenous iASPP with anti-iASPP LX49.3 from lysates of control (CTRL) cells, blot for AP1 members; each sign is one experiment (biological replicate)
[6] = molecular target: T4, iASPP (endogenous, immunoprecipitated with LX49.3 or LX128.5) (human (endogenous in HaCaT)); experiment: co-IP; IP of endogenous iASPP with anti-iASPP LX128.5 from lysates of control (CTRL) cells, blot for AP1 members; each sign is one experiment (biological replicate)

| Molecule | binding [1] | binding [3] | further results |
| --- | --- | --- | --- |
| Myc-tagged c-Jun (from UniProt P05412 1-331) | binds | binds | binding [2]: binds; binding [4]: binds |
| Myc-tagged c-Fos (from UniProt P01100 1-380) | – | no binding | – |
| B1 | – | – | binding [5]: binds; binding [6]: binds |
| B2 | – | – | binding [5]: binds; binding [6]: binds |
| B3 | binds | binds | binding [2]: binds; binding [4]: binds |
| B4 | – | binds | – |
| B5 | binds | – | – |
| B6 | binds | binds | binding [2]: binds; binding [4]: binds |
| B7 | – | no binding | – |
| B8 | – | no binding | – |
| B9 | – | no binding | – |

From publication PMC9597577, “Mutant Ras and inflammation-driven skin tumorigenesis is suppressed via a JNK-iASPP-AP1 axis” (Cell Reports, 2022)
